Patent US4220795A, “Cyclobutyl substituted derivatives of prostaglandin analogs” (Miles Laboratories, Inc., priority 1978, dated 1980)
For some of these results: At least one read-out could not be matched to a standard name with certainty. For some of these results: For at least one compound, name, drawing or mass did not settle the structure.

How the values were obtained:
guinea pig trachea = assay: Effects on the Guinea Pig Trachea (Test G); details: tracheal strips, 0.01 to 10.0 mcg/ml, vs PGE1 0.1 mcg/ml
gastric secretion = assay: Effects on Gastric Secretion in the Rat (Test B); format: in vivo; details: pylorus ligated, s.c. 2 x 1.5 mg/kg, 4 hr
Excerpt: B. Evaluation of the Effects of Prostaglandin Analogs III on Gastric Secretion in the Rat
A procedure based on that described by Lipmann (J. Pharm. Pharmacol., 21:335 [1968]) was used to assess the influence of test compounds on gastric secretion. Rats of one sex weighing 150 to 200 g were randomly divided into groups of six animals each and fasted for 48 hr previous to the experiments, water being available ad limitum. The animals were anesthetized with ether, the abdomen was opened through a midline incision and the pylorus was ligated. Test compounds were diluted from stock solution so as to administer a dose of 1.5 mg/kg in a volume equivalent to 1 ml/kg. Subcutaneous injections were applied immediately after surgery and again 2 hr later, so that a total dose of 3.0 mg/kg was administered. Dilutions were made with phosphate buffer (pH 7.38) as recommended by Lee et al. (Prostaglandins 3:29 [1973]), in order to insure adequate stability of drugs at the subcutaneous depot. Each compound was tested in one group of rats; an additional control group received only the vehicle.
Four hr after pyloric ligation the animals were killed with ether, the cardias ligated and the stomachs removed. The volume of gastric secretion was measured and the contents centrifuged at 5000 rpm for 10 min. Total acid in the supernatant was titrated against a 0.1 N sodium hydroxide solution and the amount expressed in mEq.
Volume and total acid values of the treated group were compared with those of the controls by the "T" test. Anti-secretory activity was scored according to the following scale: […]

Compound	Value judgement, Test G: Effects on Guinea Pig Trachea (relaxation R / contraction C vs PGE1) (guinea pig trachea)	Activity value, Test B: Inhibition of a Rodent Gastric Secretion (% decrease in acidity) (gastric secretion)	further results
CCC1CC(C)([C@@H](O)/C=C/C2C=CC(=O)C2CCCCCCC(=O)OC)C1 (stereo partly drawn) [TR-4695, Methyl 15S-hydroxy-16,18-methano-16-methyl-9-oxoprosta-10,13E-dien-1-oate]	0	–	–
CCC1CC([C@H](O)/C=C/C2C(O)CC(O)C2CCCCCCC(=O)OC)C1 (stereo partly drawn) [TR-4624, Methyl 16,18-methano-9α,1α,15S-trihydroxyprost-13E-en-1-oate]	0	–	–
CCC1CC([C@H](O)/C=C/C2C(O)CC(O)C2CCCCCCCO)C1 (stereo partly drawn) [TR-4627, 16,18-Methanoprost-13E-en-1,9β,11α,15S-tetraol]	–	–	Value judgement, Test G: Effects on Guinea Pig Trachea (relaxation R / contraction C vs PGE1) (guinea pig trachea; listed as 4627): 0
CCC1CC(C(/C=C/C2C=CC(=O)C2CCCCCCC(=O)OC)OC(C)=O)C1 (stereo not shown) [TR-4281, Methyl 15RS-acetoxy-16,18-methano-9-oxoprosta-10,13E-dien-1-oate]	0	–	–
CCC1CC([C@H](O)/C=C/C2C(O)CC(O)C2CCCCCCCO)C1 (stereo partly drawn) [TR-4626, 16,18-Methanoprost-13E-en-1,9α,11α,15S-tetraol]	–	–	Value judgement, Test G: Effects on Guinea Pig Trachea (relaxation R / contraction C vs PGE1) (guinea pig trachea; listed as 4626): C1
COC(=O)CCCCCC[C@H]1C(=O)C[C@@H](O)[C@@H]1/C=C/[C@@H](O)C1(C)CCC1 [TR-4690, Methyl 16,19-cyclo-11α,15R-dihydroxy-16-methyl-20-nor-9-oxoprost-13E-en-1-oate]	–	4 (76-100)	–
CCC1CC(C)(C(O)/C=C/[C@H]2C=CC(=O)[C@@H]2CCCCCCC(=O)OC)C1 (stereo partly drawn) [TR-4694, Methyl 15R-hydroxy-16,18-methano-16-methyl-9-oxoprosta-10,13E-dien-1-oate]	–	0 (<26)	–
CCC1CC([C@@H](O)/C=C/[C@H]2[C@H](O)CC(=O)[C@@H]2CCCCCCC(=O)OC)C1 (stereo partly drawn) [TR-4248, Methyl 11α,15R-dihydroxy-16,18-methano-9-oxoprost-13E-en-1-oate]	–	4 (76-100)	–
CCC1CC(C)([C@@H](O)/C=C/[C@H]2[C@H](O)CC(=O)[C@@H]2CCCCCCC(=O)OC)C1 (stereo partly drawn) [TR-4682, Methyl 11α,15S-dihydroxy-16,18-methano-16-methyl-9-oxoprost-13E-en-1-oate]	–	2 (26-50, significant)	–
O=C1C[C@@H](O)[C@H](/C=C/[C@H](O)C2CC(C3CCC3)C2)[C@H]1CCCCCCCO (stereo partly drawn) [TR-4881, 1,11α,15R-Trihydroxy-16,18-methano-19,20-ethanoprost-13E-en-9-one]	–	0 (<26)	–
